In PubChem BioAssay AID1347417 (National Center for Advancing Translational Sciences (NCATS), 2020):
In all, about 120,000 compounds went through this assay and about 5,300 (4.4%) were called active. The shares of active, inactive and inconclusive entries below differ from those in the screen. Calls follow the shape of the dose curve; as a rule, active = well fitted inhibition curve with a large enough effect; inconclusive = small, poorly fitted or top-dose-only effect; inactive = no such curve, though single readings can be large or run the other way. Potencies beside an inconclusive call are fits to weak or partial responses and may not hold up.

Assay: qHTS Primary assay for Inhibitors of Plasmodium falciparum Dd2 growth in vitro; also: nearly all actives have a fitted effect of over 65% in size;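 as to activity, negative = inhibition: plate controls were DMSO vehicle for no effect and reference drug for full effect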
Conditions: P. falciparum Dd2 growth, SYBR Green, 72 h; activity, negative = inhibition: at 28.9 µM (top of the series) unless noted; series mostly up to 28.9 µM
Summary of the method: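 Readout: SYBR Green fluorescence, 485 nm excitation, 535 nm emission, after ~16 h lysis at 37C. Before that, Dd2-infected red cells (2.5% hematocrit) grew 72 h with compound, 29 uM top final concentration.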
Potency is read from the fitted curve at half-maximal effect; tags tell the direction and shape of the fitted curve.

Row | SMILES | activity, negative = inhibition | Potency | outcome
1 | COc1ccc(C(=O)N[C@H]2C[C@H]3C(=O)Nc4cc(Cl)ccc4C(=O)N3C2)cc1 | inactive: -26% [at 44.1 µM] |  | 
2 | COCC(=O)NC[C@H]1CCN(Cc2ccc(C#N)cc2)C[C@H]1N(C)C |  | inconclusive: 10 µM [inhibitor, single point] | 
3 | O=C(COc1ccccc1F)N1CCN(Cc2cc(=O)n3nc(-c4ccccc4Cl)sc3n2)CC1 |  | inconclusive: 10 µM [inhibitor, single point] | 
4 | O=C(c1cc(-c2ccccc2)n[nH]1)N1CCc2c(nc3cc[nH]n3c2=O)C1 |  | inconclusive: 10 µM [inhibitor, partial curve, poor fit] | 
5 | CCOC(=O)c1c(C)[nH]c(C)c1S(=O)(=O)N1CCCC(C(=O)N2CCN(c3ccccc3F)CC2)C1 (stereo not drawn) |  | inconclusive: 12.6 µM [inhibitor, single point] | 
6 | CNC(=O)c1cc(-c2ccncc2)cc2c1OCCN2Cc1cccnc1 |  | inconclusive: 0.282 µM [inhibitor, full curve, poor fit] | 
7 | O=[S+]([O-])(c1ccc(Br)cc1)c1nnn2c1nc(NCc1ccc(F)cc1)c1ccccc12 |  | inconclusive: 10 µM [inhibitor, single point] | 
8 | CCN1c2cc(C(=O)Nc3ccc(C)cc3)ccc2C(=O)N2CCCCC21 (stereo not drawn) |  |  | inactive
9 | CCc1nc(-c2ccc(OC3CCN(S(=O)(=O)Cc4ccccc4)C3)cc2)no1 (stereo not drawn) |  |  | inactive [at 5.79 µM]
10 | Cn1ccnc1CN1C(=O)CO[C@H]2CN(C3CCCCC3)C[C@H]21 |  | inconclusive: 31.6 µM [inhibitor, single point] | 
11 | COc1ccc(-c2cc(N3CCN(C(=O)c4ccc(N(C)C)cc4)CC3)n[nH]2)cc1 |  | inconclusive: 1.41 µM [inhibitor, partial curve, poor fit] | 
12 | Cc1ccccc1CN1C(=O)c2ccccc2Sc2ccc(C(=O)NC3CCCCC3)cc21 |  | inconclusive: 17.8 µM [inhibitor, single point] | 
13 | O=C(CCc1ccccc1)N1CCC2(CC1)CC(OCC1CC1)CCO2 (stereo not drawn) | inactive: 6.25% |  | 
14 | COc1ccc(C(=O)N2CCOC[C@H](Oc3ccc(C(F)(F)F)cn3)C2)cc1 | inactive: 5.36% [at 44.1 µM] |  | 
15 | COC[C@H]1CCCN1[C@@H]1[C@H](O)[C@H](CO)O[C@@H]1CNC(=O)C1CCCC1 | inactive: -6.48% [at 44.1 µM] |  | 
16 | Cc1ccc(NC(=O)CN2C(=O)CCc3ccccc32)cc1C |  | inconclusive: 10 µM [inhibitor, partial curve, poor fit] | 
17 | COC(=O)CNC(=O)NCCc1ncc(C)n1Cc1ccccc1 |  | inconclusive: 6.31 µM [inhibitor, partial curve, poor fit] | 
18 | CN(CC1CCOCC1)S(=O)(=O)c1ccccc1 | inactive: 14.9% |  | 
19 | COc1ccc(C(=O)N2CCN(c3cc(-c4cccs4)[nH]n3)CC2)c(OC)c1 |  | inconclusive: 7.08 µM [inhibitor, partial curve, poor fit] | 
20 | O=C1NC2(CN(Cc3ccccc3C(F)(F)F)C2)Oc2ccccc21 | inactive: -13.9% |  | 
21 | CN1CCCC1c1nc(C2CN(C(=O)c3ccn[nH]3)C2)no1 (stereo not drawn) | inactive: 21.7% |  | 
22 | Cc1ccc(/C=C/c2onc(C)c2S(=O)(=O)N2CCC(C(=O)N3CCN(c4cccc(C)c4)C(C)C3)CC2)cc1 (stereo not drawn) |  |  | inactive

Row | SMILES | activity, negative = inhibition | Potency | outcome
23 | CC(=O)Oc1ccccc1C(=O)Nc1ccc2c(c1)CN(CCc1ccc(F)cc1)C(=O)C(C)O2 (stereo not drawn) |  | inconclusive: 1.41 µM [inhibitor, partial curve, poor fit] | 
24 | COc1ccccc1C(=O)N(Cc1nc(-c2cccc(C)c2)no1)C(C)C |  | inconclusive: 15.8 µM [inhibitor, single point] | 
25 | CN1CCC(C(=O)N2Cc3ccccc3CC3(CCN(Cc4ccncc4)C3)C2)CC1 (stereo not drawn) |  | inconclusive: 11.2 µM [inhibitor, single point] | 
26 | Fc1cccc(C2CCCCCN2Cc2cn(-c3ccccc3)nn2)c1 (stereo not drawn) |  | inconclusive: 10 µM [inhibitor, partial curve] | 
27 | COc1ccccc1CC(=O)N1CCCc2ncc(C(=O)N3CCCC[C@@H]3Cc3ccccc3)cc21 |  | active: 7.94 µM | 
28 | O=C(C1CCC1)N1CCC(N2CC(OCC3CC3)C23CCOCC3)CC1 (stereo not drawn) |  | inconclusive: 17.8 µM [inhibitor, single point] | 
29 | Cc1noc(C)c1S(=O)(=O)N1CC(n2cc(C(=O)NCc3ccncc3)nn2)C1 | inactive: 9.01% |  | 
30 | O=C(NCc1cccnc1)c1cnc2c(c1)N([S+](=O)([O-])c1cccnc1)CCC2 |  | inconclusive: 0.447 µM [inhibitor, partial curve, poor fit] | 
31 | O=C(c1ccncc1)N1CC(Oc2ccccc2-c2nc(-c3cnccn3)no2)C1 |  | inconclusive: 1 µM [inhibitor, full curve, poor fit] | 
32 | COc1ccc(N2CC(NC(=O)c3cccs3)CC2=O)cc1 (stereo not drawn) | inactive: 4.69% |  | 
33 | CCCCN(Cc1ccccc1)Cc1cn[nH]c1-c1ccc(OC)cc1OC |  | active: 12.6 µM | 
34 | CCN(CC)C(=O)c1ccc2c(c1)N(Cc1c(F)cccc1Cl)C(=O)c1ccccc1S2 |  | inconclusive: 17.8 µM [inhibitor, single point] | 
35 | O=C(NC1CCCCC1)O[C@@H]1CO[C@H]2[C@@H]1OC[C@@H]2Nc1nccc(-c2cccs2)n1 |  | inconclusive: 1.41 µM [inhibitor, partial curve, poor fit] | 
36 | CCc1cc(=O)n(CC(=O)Nc2ccccc2OC)c(N2CCOCC2)n1 |  | active: 11.2 µM | 
37 | COc1ccc(-c2cc(N3CCC(NC(=O)c4ccc(NC(C)=O)cc4)CC3)n[nH]2)cc1 |  | inconclusive: 3.98 µM [inhibitor, single point] | 
38 | COc1cccc(-c2cc3c(=O)n(CCNC(=O)C(C)Oc4ccccc4)ccn3n2)c1 (stereo not drawn) | inactive: -9.18% |  | 
39 | O=C(C[C@H]1NC(=O)c2ccccc2NC1=O)Nc1nc(-c2ccc3c(c2)OCO3)cs1 |  | inconclusive: 17.8 µM [inhibitor, single point] | 
40 | O=C(c1ccc2c(c1)OCO2)N1CCn2c(nnc2-c2ccccc2)C1 |  |  | inactive
41 | Cc1ccc(NC(=O)N2CCC(CCNC(=O)CCCc3ccccc3)CC2)cc1 |  |  | inactive
42 | CN(Cc1cc(=O)c2cc(C(N)=O)ccc2[nH]1)Cc1n[nH]c2c1CCCCC2 |  |  | inactive
43 | COCc1cccc(-c2n[nH]c3c2CC(=O)N(Cc2ccc(OC)cc2)C3)c1 |  | inconclusive: 25.1 µM [inhibitor, single point] | 
